Laboratory results as given in US20130336977A1 (published 2013).

T1: CD20 (human, UniProt P11836 1-297)
T1 construct: whole, on cells; also called human CD20; CD20 presented on WIL-2S cells
T1 sequence (looked up): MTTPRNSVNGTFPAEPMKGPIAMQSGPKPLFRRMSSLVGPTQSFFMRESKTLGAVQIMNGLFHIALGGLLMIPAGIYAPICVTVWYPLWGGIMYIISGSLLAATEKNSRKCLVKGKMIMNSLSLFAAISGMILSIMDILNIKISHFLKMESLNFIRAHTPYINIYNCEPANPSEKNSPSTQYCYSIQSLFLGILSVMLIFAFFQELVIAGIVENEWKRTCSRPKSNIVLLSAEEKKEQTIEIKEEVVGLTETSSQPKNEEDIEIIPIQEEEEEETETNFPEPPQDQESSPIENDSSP

B1: CD20×CD20 scorpion (S0129 backbone) with H17 scorpion linker (other)
chain: EIVLTQSPATLSLSPGERATLSCRASSSVSYIVWYQQKPGQAPRLLIYAPSNLASGIPARFSGSGSGTDFTLTISSLEPEDFAVYYCQQWSFNPPTFGQGTKVEIKDGGGSGGGGSGGGGSSQVQLVQSGAESKKPGASVKVSCKASGYTFTSYNMHWVRQAPGQGLEWMGAIYPGNGDTSYNQKFKGRVTMTRDTSTSTVYMELSSLRSEDTAVYYCARSYYSNSYWYFDLWGRGTLVTVSSS[in this place human IgG1 Fc with changes]LSVKADFLTPSISCPPCPNSQVQLVQSGAESKKPGASVKVSCKASGYTFTSYNMHWVRQAPGQGLEWMGAIYPGNGDTSYNQKFKGRVTMTRDTSTSTVYMELSSLRSEDTAVYYCARSYYSNSYWYFDLWGRGTLVTVSSGGGGSGGGGSGGGGSASEIVLTQSPATLSLSPGERATLSCRASSSVSYIVWYQQKPGQAPRLLIYAPSNLASGIPARFSGSGSGTDFTLTISSLEPEDFAVYYCQQWSFNPPTFGQGTKVEIKD
notes: also called 20×20 H17 variant
B2: S0129 (other)
chain: EIVLTQSPATLSLSPGERATLSCRASSSVSYIVWYQQKPGQAPRLLIYAPSNLASGIPARFSGSGSGTDFTLTISSLEPEDFAVYYCQQWSFNPPTFGQGTKVEIKDGGGSGGGGSGGGGSSQVQLVQSGAESKKPGASVKVSCKASGYTFTSYNMHWVRQAPGQGLEWMGAIYPGNGDTSYNQKFKGRVTMTRDTSTSTVYMELSSLRSEDTAVYYCARSYYSNSYWYFDLWGRGTLVTVSSS[in this place human IgG1 Fc with changes]GCPPCPNSQVQLVQSGAESKKPGASVKVSCKASGYTFTSYNMHWVRQAPGQGLEWMGAIYPGNGDTSYNQKFKGRVTMTRDTSTSTVYMELSSLRSEDTAVYYCARSYYSNSYWYFDLWGRGTLVTVSSGGGGSGGGGSGGGGSASEIVLTQSPATLSLSPGERATLSCRASSSVSYIVWYQQKPGQAPRLLIYAPSNLASGIPARFSGSGSGTDFTLTISSLEPEDFAVYYCQQWSFNPPTFGQGTKVEIKD
modifications: Forms a disulfide-linked homodimer; one chain is given.
notes: Monospecific single-chain scorpion; also called CD20×CD20 scorpion S0129 (2lm20-4x2lm20-4); S0129wt
B3: humanized CD20 (2Lm20-4) SMIP (Fc fusion)
chain: EIVLTQSPATLSLSPGERATLSCRASSSVSYIVWYQQKPGQAPRLLIYAPSNLASGIPARFSGSGSGTDFTLTISSLEPEDFAVYYCQQWSFNPPTFGQGTKVEIKDGGGSGGGGSGGGGSSQVQLVQSGAESKKPGASVKVSCKASGYTFTSYNMHWVRQAPGQGLEWMGAIYPGNGDTSYNQKFKGRVTMTRDTSTSTVYMELSSLRSEDTAVYYCARSYYSNSYWYFDLWGRGTLVTVSSS[in this place human IgG1 Fc with changes]
notes: also called hu CD20 (2Lm20-4) SMIP
B4: CD20×CD20 scorpion (S0129 backbone) with H16 scorpion linker (other)
chain: EIVLTQSPATLSLSPGERATLSCRASSSVSYIVWYQQKPGQAPRLLIYAPSNLASGIPARFSGSGSGTDFTLTISSLEPEDFAVYYCQQWSFNPPTFGQGTKVEIKDGGGSGGGGSGGGGSSQVQLVQSGAESKKPGASVKVSCKASGYTFTSYNMHWVRQAPGQGLEWMGAIYPGNGDTSYNQKFKGRVTMTRDTSTSTVYMELSSLRSEDTAVYYCARSYYSNSYWYFDLWGRGTLVTVSSS[in this place human IgG1 Fc with changes]LSVKADFLTPSIGNSQVQLVQSGAESKKPGASVKVSCKASGYTFTSYNMHWVRQAPGQGLEWMGAIYPGNGDTSYNQKFKGRVTMTRDTSTSTVYMELSSLRSEDTAVYYCARSYYSNSYWYFDLWGRGTLVTVSSGGGGSGGGGSGGGGSASEIVLTQSPATLSLSPGERATLSCRASSSVSYIVWYQQKPGQAPRLLIYAPSNLASGIPARFSGSGSGTDFTLTISSLEPEDFAVYYCQQWSFNPPTFGQGTKVEIKD
notes: also called 20×20 H16 variant
B5: CD20×CD20 scorpion (S0129 backbone) with H18 scorpion linker (other)
chain: EIVLTQSPATLSLSPGERATLSCRASSSVSYIVWYQQKPGQAPRLLIYAPSNLASGIPARFSGSGSGTDFTLTISSLEPEDFAVYYCQQWSFNPPTFGQGTKVEIKDGGGSGGGGSGGGGSSQVQLVQSGAESKKPGASVKVSCKASGYTFTSYNMHWVRQAPGQGLEWMGAIYPGNGDTSYNQKFKGRVTMTRDTSTSTVYMELSSLRSEDTAVYYCARSYYSNSYWYFDLWGRGTLVTVSSS[in this place human IgG1 Fc with changes]LSVLANFSQPEIGNSQVQLVQSGAESKKPGASVKVSCKASGYTFTSYNMHWVRQAPGQGLEWMGAIYPGNGDTSYNQKFKGRVTMTRDTSTSTVYMELSSLRSEDTAVYYCARSYYSNSYWYFDLWGRGTLVTVSSGGGGSGGGGSGGGGSASEIVLTQSPATLSLSPGERATLSCRASSSVSYIVWYQQKPGQAPRLLIYAPSNLASGIPARFSGSGSGTDFTLTISSLEPEDFAVYYCQQWSFNPPTFGQGTKVEIKD
notes: also called 20×20 H18 variant

Columns and labels:
CD20 [1] = target: T1, CD20; test: binding to CD20-positive WIL2S cells
CD20 [2] = target: T1, CD20; test: flow cytometry time course of cell-surface persistence on Ramos cells
CD20 [3] = target: T1, CD20; test: flow cytometry time course on Ramos cells loaded at 25 µg/ml, washed, kept at 37° C. or on ice

| Binder | binding result (CD20 [1]) | other results |
| --- | --- | --- |
| B1 | binds | – |
| B2 | – | binding result (CD20 [2]): binds |
| B3 | – | binding result (CD20 [3]): binds |
| B4 | binds | – |
| B5 | binds | – |
